# Test results as given in PubChem BioAssay AID588456 (National Center for Advancing Translational Sciences (NCATS), 2011).
# Where “and” joins values, the source holds several entries; their conditions need not be identical. Identical values can stand only once. The whole screen tested about 390,000 compounds, of which about 55 (0.01%) were called active. This list was built around the results that the source calls inconclusive (neither active nor inactive); the mix of calls is not that of the screen. The call rests on the fitted dose curve; in most records, active means well fitted inhibition curve with a large enough effect; inconclusive means small, poorly fitted or top-dose-only effect; inactive means no such curve, though single readings can be large or run the other way. A potency beside an inconclusive call is a rough fit, not a confirmed value.
# Target: Thioredoxin reductase 1, cytoplasmic (Rattus norvegicus) (UniProt O89049)
# UniProt O89049, sequence (O89049 whole entry, looked up): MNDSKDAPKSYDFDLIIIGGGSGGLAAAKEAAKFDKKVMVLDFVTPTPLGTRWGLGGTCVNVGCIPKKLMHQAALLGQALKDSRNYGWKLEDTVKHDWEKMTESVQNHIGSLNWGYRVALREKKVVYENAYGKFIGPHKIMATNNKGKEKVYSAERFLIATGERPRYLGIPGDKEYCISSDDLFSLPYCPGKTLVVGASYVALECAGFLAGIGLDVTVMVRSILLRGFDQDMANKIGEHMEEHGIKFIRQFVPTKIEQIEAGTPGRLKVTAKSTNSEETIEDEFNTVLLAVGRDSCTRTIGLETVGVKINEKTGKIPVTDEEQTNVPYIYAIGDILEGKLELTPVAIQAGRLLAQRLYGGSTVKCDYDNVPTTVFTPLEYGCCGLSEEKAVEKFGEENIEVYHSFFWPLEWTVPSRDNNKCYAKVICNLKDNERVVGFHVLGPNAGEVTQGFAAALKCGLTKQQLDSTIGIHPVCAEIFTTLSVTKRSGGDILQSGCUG
# Experiment: qHTS Assay for Substrates of Mammalian Selenoprotein Thioredoxin Reductase 1 (TrxR1): qHTS; further: nearly all actives have a fitted effect of over 50% in size
# Conditions: purified TrxR1 substrate turnover, NADPH consumption readout; series mostly up to 114 µM; activity change, negative = substrate turnover: at the top concentration
# How it was run: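 Rat TrxR1, dispensed at 90 nM, was prereduced with 400 uM NADPH (final) for 5 min at ~22 deg C, then incubated with compound 15 min before 400 uM selenite. A first-read NADPH fluorescence drop versus no-compound background flagged substrates.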
# On the % scale 0 is the no-effect control and ±100 the full control effect; potency means the concentration at half of the fitted maximal effect; tags describe the fitted curve by direction and shape.
SMILES,Potency,"activity change, negative = substrate turnover"
Cc1ccc(NC2=C(NC(=O)c3ccccc3)C(=O)c3ccccc3C2=O)cc1Cl,"inconclusive: 79.4 µM [inhibitor, partial curve, poor fit]",
Cc1ccc2c(c1)N(C)/C(=C/c1cccc[n+]1C)S2,"inconclusive: 89.1 µM [inhibitor, single point]",
COc1ccc(S(=O)(=O)N2CCC(C(=O)Nc3ccc(Oc4ccccc4)cc3)CC2)cc1,,inactive: 3.1%
CN(C)c1cccc2c1c(NC(=O)c1ccc(Cl)cc1)nn2C,"inconclusive: 89.1 µM [inhibitor, single point]",
CCCOc1ccc(Cc2c(O)nc(SC)[nH]c2=O)cc1C,"inconclusive: 89.1 µM [inhibitor, partial curve, poor fit]",
CC(C)(C)c1ccc(OCC(=O)NNC(=O)Nc2ccccc2)cc1,"inconclusive: 28.2 µM [inhibitor, single point]",
COc1ccc(/C=C/C(=O)Nc2sc(C)c(C)c2C(=O)O)cc1,"inconclusive: 89.1 µM [inhibitor, partial curve, poor fit]",
C#CCN1C(C)=C(C(=O)OC)C(c2cccc([N+](=O)[O-])c2)C(C(=O)OCC)=C1C (stereo not drawn),"inconclusive: 42.3 µM [inhibitor, partial curve, poor fit]",
COc1c(F)c(F)c(C(=O)Nc2c(C)cc(Br)cc2C)c(F)c1F,"inconclusive: 39.8 µM [inhibitor, single point]",
N#CC(=C=[N-])c1nc2ccccc2nc1-[n+]1cccc(NC(=O)c2cccs2)c1,"inconclusive: 39.8 µM [inhibitor, single point]",
COn1c2c(c3c4nonc4ccc31)CCCC2,"inconclusive: 6.31 µM [inhibitor, single point]",
O=C(CNS(=O)(=O)c1ccccc1)N/N=C/c1ccccc1[N+](=O)[O-],"inconclusive: 31.6 µM [inhibitor, partial curve, poor fit]",
Nc1nc(NCCCN2CCOCC2)nc(Nc2cccc(Cl)c2)c1[N+](=O)[O-],"inconclusive: 89.1 µM [inhibitor, partial curve, poor fit]",
Cc1nnc(N/N=C/c2ccc(O)c([N+](=O)[O-])c2)[nH]c1=O,"inconclusive: 79.4 µM [inhibitor, single point]",
CCN1CCN(CCNC(=O)c2ccc3c(c2)N(Cc2ccc(F)cc2)C(=O)/C(=C/c2ccccc2)S3)CC1,,inactive: 0.0692%
C(=C\c1ccc2ccccc2n1)/c1ccccc1,"inconclusive: 79.4 µM [inhibitor, partial curve, poor fit]",
COc1ccc(C(=O)Nc2cccc(-c3cnc4ccccc4n3)c2)cc1,,inactive: 0.0795%
CC(C)(C)c1nnc(NC(=O)c2cccs2)s1,"inconclusive: 31.6 µM [inhibitor, partial curve, poor fit]",
COc1ccc(OCc2nnc3n2N=C(c2ccccc2)C(CC(=O)O)S3)cc1 (stereo not drawn),"inconclusive: 89.1 µM [inhibitor, partial curve, poor fit]",

SMILES,Potency,"activity change, negative = substrate turnover"
C[C@@H](NC(=O)/C(C#N)=C/c1ccc(O)c(O)c1)c1ccccc1,"inconclusive: 33.6 µM [inhibitor, partial curve, poor fit]",
COc1cc(O)c(C(CC(=O)N2CCN(c3ccccc3)CC2)c2cc(OC)c(OC)c(OC)c2)c(OC)c1 (stereo not drawn),"inconclusive: 70.8 µM [inhibitor, single point]",
CN1CCN(C2=NC(=O)/C(=C/c3ccccc3OS(=O)(=O)c3ccccc3)S2)CC1,"inconclusive: 89.1 µM [inhibitor, partial curve, poor fit]",
CCCCCCCC/C=C\CCCCCCCC(=O)NCCc1ccc(O)c(O)c1,"inconclusive: 79.4 µM [inhibitor, partial curve, poor fit] and inconclusive: 17.8 µM [inhibitor, partial curve]",
Cc1ccc(N2CCN(S(=O)(=O)c3ccc4oc(=O)ccc4c3)CC2)c(C)c1,"inconclusive: 89.1 µM [inhibitor, single point]",
CC1CN(S(=O)(=O)c2cccc3cnccc23)CCN1 (stereo not drawn),"inconclusive: 42.3 µM [inhibitor, partial curve, poor fit]",
O=C1NC(=Nc2ccc(O)cc2)S/C1=C/c1ccco1,"inconclusive: 89.1 µM [inhibitor, single point]",
N/C(=N\OC(=O)c1cccs1)c1ccc(Cl)cc1,,inactive: -6.43%
CC1=C(C(=O)Nc2ccccc2C(=O)NCCCN2CCN(C)CC2)SCCO1,"inconclusive: 70.8 µM [inhibitor, single point]",
COc1ccccc1NC(=O)NC1(C(=O)NCC2CCCO2)CCCCC1 (stereo not drawn),"inconclusive: 89.1 µM [inhibitor, single point]",
CCn1c(SCC(=O)Nc2ccc(C)cc2)nc2nc3c(cc2c1=O)COC(C)(C)C3,"inconclusive: 89.1 µM [inhibitor, partial curve, poor fit]",
CN(c1nc2nonc2nc1NC1CC1)C1CCOC1 (stereo not drawn),"inconclusive: 89.1 µM [inhibitor, single point]",
CC(=O)OCC1=C(C(=O)O)N2C(=O)C(NC(=O)C(C)Cn3nc(C)c(Cl)c3C)C2SC1 (stereo not drawn),"inconclusive: 100 µM [inhibitor, single point]",
N#C/C(=C\c1ccc(N2CCOCC2)o1)C(=O)NCC1CCCO1 (stereo not drawn),,inactive: -30.3%
O=C(O)CS(=O)CC(=O)NCc1cccc(C(F)(F)F)c1 (stereo not drawn),"inconclusive: 89.1 µM [inhibitor, partial curve, poor fit]",
CC(C)(C)c1nnc(NC(=O)c2cccnc2Cl)s1,"inconclusive: 79.4 µM [inhibitor, single point]",
Cc1cc(C)cc(NC(=O)C2CCCN2S(=O)(=O)c2ccc3nc(-c4ccccc4)[nH]c3c2)c1 (stereo not drawn),"inconclusive: 31.6 µM [inhibitor, single point]",
Cc1ccc(-n2cc(CNCCCn3ccnc3C)c(-c3ccc(F)cc3)n2)cc1,,inactive: 6.99% [at 57.1 µM]
Cc1ccc(N2CC(C(=O)OCC(=O)Nc3ccccc3F)CC2=O)cc1 (stereo not drawn),"inconclusive: 100 µM [inhibitor, single point]",
